Results from PubChem BioAssay AID2451 (National Center for Advancing Translational Sciences (NCATS), 2010).
The whole screen tested about 290,000 compounds, of which about 2,100 (0.72%) were called active. This list was built around the results that the source calls inconclusive (neither active nor inactive); the mix of calls is not that of the screen. Calls come from the whole dose curve; as a rule, active = well fitted inhibition curve with a large enough effect; inconclusive = small, poorly fitted or top-dose-only effect, or effect the other way; inactive = flat fitted curve, though single readings scatter. Potencies of inconclusive entries are doubtful fits and often do not repeat.

Molecular target: Fructose-bisphosphate aldolase (Giardia intestinalis (strain ATCC 50803 / WB clone C6)) (UniProt A8B2U2)
Experiment: qHTS Assay for Inhibitors of Fructose-1,6-bisphosphate Aldolase from Giardia Lamblia; note: nearly all actives have a fitted effect of over 55% in size
Details: purified Giardia FBPA; series mostly up to 59.6 µM
How it was run: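 Giardia FBPA (40 nM reagent) was preincubated 10 min at RT with compound (up to 57.5 uM final), then substrate plus GAPDH/TPI/NAD/arsenate coupling system with diaphorase/resazurin was added; resorufin fluorescence (525/598 nm) was read after 20 min.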
Potency is the fitted concentration of half-maximal effect; tags give direction and shape of the fitted curve.

Sequence of UniProt A8B2U2 (A8B2U2 whole entry, looked up): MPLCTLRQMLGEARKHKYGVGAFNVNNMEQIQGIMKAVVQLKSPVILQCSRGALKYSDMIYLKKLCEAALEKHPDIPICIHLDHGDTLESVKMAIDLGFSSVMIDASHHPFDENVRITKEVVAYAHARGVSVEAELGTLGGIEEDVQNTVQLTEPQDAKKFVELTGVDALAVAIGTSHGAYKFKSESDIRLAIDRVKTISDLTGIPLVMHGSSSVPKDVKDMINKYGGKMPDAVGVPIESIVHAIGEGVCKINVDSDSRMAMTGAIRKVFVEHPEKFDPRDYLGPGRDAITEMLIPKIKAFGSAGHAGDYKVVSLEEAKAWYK

| SMILES | Potency |
| --- | --- |
| CCCCNC(C(=O)Nc1ccc([N+](=O)[O-])cc1Br)c1ccccc1 (centres undefined) | inconclusive: 19.9 µM [inhibitor, partial curve] |
| Cc1cc(C(=O)N/N=C/c2cc(Br)cc([N+](=O)[O-])c2O)c2ccccc2n1 | inconclusive: 17.7 µM [activator, partial curve] |
| Cc1ccc(-n2c(N)c(C(=O)Nc3ccccc3F)sc2=S)cc1C | inconclusive: 15.8 µM [inhibitor, partial curve] |
| Cc1cccc(OCc2nc(-c3ccccn3)n[nH]2)c1 | inconclusive: 25.1 µM [inhibitor, single point] |
| COC1=CC(=Cc2c(N)n3nc(CC(=O)N4CCOCC4)sc3nc2=O)C=C(OC)C1=O | inconclusive: 25.1 µM [inhibitor, partial curve] |
| CCC(CC)N1CCN(CC2CC=CCC2)CC1 (centres undefined) | inconclusive: 11.2 µM [inhibitor, partial curve] |
| CCN(CC)c1ccc(C(=O)NNC(=O)CCl)cc1 | inconclusive: 31.5 µM [inhibitor, single point] |
| O=C(CN1CC(=O)Nc2ccccc21)Nc1ccc(F)c(F)c1 | inconclusive: 22.3 µM [inhibitor, single point] |
| CCOC(=O)c1ccc(N2C=C(C(=O)OC)C(c3cccc(O)c3)C(C(=O)OC)=C2)cc1 | inactive |
| CCN(CC)S(=O)(=O)c1cccc(NC(=O)CN(C)Cc2cccc(OC)c2)c1 | inconclusive: 35.4 µM [inhibitor, single point] |
| O=S(=O)(NCc1cc(-c2ccccc2Cl)no1)c1ccccc1 | inactive |
| CCc1ccc2c(c1)C1(NN=C(c3cccc4ccccc34)S1)C(=O)N2 (centres undefined) | inconclusive: 44.6 µM [inhibitor, single point] |
| Cn1c(CCC(=O)OCC(=O)NCc2ccccc2Cl)nc(=O)c2ccccc21 | inconclusive: 17.7 µM [inhibitor, partial curve] |
| COc1ccc(CCNC(=O)CS(=O)(=O)c2cn(CC(=O)N3CCOCC3)c3ccccc23)cc1OC | inconclusive: 17.7 µM [inhibitor, single point] |
| COc1ccc(Oc2c(-c3ccc(O)cc3O)n[nH]c2C)cc1 | inactive |
| O=C1COc2ccc(N3C(=O)C=CC3=O)cc2N1 | inconclusive: 35.4 µM [inhibitor, single point] |
| CCSc1ncc(/C=N/Nc2ccc(F)cc2)n1C | inactive |
| Fc1ccccc1CNCCc1c[nH]c2ccccc12 | inconclusive: 15.8 µM [inhibitor, partial curve] |
| O=C(NCC(c1cccnc1)N1CCN(c2ccc(F)cc2)CC1)OCc1ccccc1 (centres undefined) | inconclusive: 7.94 µM [activator, partial curve] |
